Measured values reported in the antibiotic and cytotoxicity screens of Wong et al. (2023).
The list shows a part of the results.

Tested on: HepG2
Assay: cytotoxicity call (relative viability < 0.9)
Conditions: 10 µM

Compound | cytotoxicity call
Cc1noc(C)c1NC(=O)N(C)C[C@H]1Oc2ncc(C#CCC(C)C)cc2C(=O)N([C@H](C)CO)C[C@H]1C | inactive
C[C@@H]1CCCCO[C@@H](CN(C)S(=O)(=O)c2ccc(Cl)cc2)[C@H](C)CN([C@@H](C)CO)C(=O)c2cc(NC(=O)Nc3ccc(C(F)(F)F)cc3)ccc2O1 | inactive
COc1ccc2c3c([nH]c2c1)[C@@H](CO)N(C[C@]13CCN(CC1)Cc1nccs1)C(=O)C1CCOCC1 | inactive
CC(C)Cn1c(=O)n(C)c(=O)c2[nH]cnc21 | inactive
CNC(=O)C[C@@H]1CC[C@H]2[C@@H](COC[C@H](O)CN2C(=O)Nc2cccc(OC)c2)O1 | inactive
COc1ccc(C2CC(=O)c3c(O)cc(OC4OC(COC5OC(C)C(O)C(O)C5O)C(O)C(O)C4O)cc3O2)cc1O (stereo unspecified) | inactive
